# Reference: the supplement of paper PMC3334620
# The full ranking holds about 33,000 sequences; the median of “E-score (-0.5 to 0.5)” is about -0.011, and the highest 2% start at about 0.28. This is one part of the list.
# Biological target: T1, Gcr1 (UniProt P07261)
# T1 sequence: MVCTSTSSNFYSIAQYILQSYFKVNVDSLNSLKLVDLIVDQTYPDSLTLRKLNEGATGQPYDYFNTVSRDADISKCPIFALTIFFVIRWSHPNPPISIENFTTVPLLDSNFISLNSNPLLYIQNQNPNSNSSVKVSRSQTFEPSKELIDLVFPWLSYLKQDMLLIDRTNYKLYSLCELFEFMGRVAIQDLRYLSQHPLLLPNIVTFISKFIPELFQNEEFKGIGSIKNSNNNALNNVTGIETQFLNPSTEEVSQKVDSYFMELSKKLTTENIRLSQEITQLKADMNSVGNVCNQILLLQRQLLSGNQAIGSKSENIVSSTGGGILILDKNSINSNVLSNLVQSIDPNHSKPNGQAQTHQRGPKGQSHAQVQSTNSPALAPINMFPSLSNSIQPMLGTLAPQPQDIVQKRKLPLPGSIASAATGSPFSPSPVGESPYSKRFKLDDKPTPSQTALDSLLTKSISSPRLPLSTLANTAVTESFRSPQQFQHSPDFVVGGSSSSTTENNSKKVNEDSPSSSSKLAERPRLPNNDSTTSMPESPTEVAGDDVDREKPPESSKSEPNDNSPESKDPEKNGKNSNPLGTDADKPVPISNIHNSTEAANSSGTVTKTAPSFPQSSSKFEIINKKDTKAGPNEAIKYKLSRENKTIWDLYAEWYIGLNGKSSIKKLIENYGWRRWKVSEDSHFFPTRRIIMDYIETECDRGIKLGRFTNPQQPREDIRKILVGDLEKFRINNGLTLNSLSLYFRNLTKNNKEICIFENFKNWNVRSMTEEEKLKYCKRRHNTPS
# Assay: PBM E-score (8-mer binding enrichment) (E-score (-0.5 to 0.5)); higher = stronger / more preferred TF binding; most listed sequences are background and not binding sites
# Conditions: protein concentration: 100 nM; construct: GST-full length
# In short: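 PURExpress in vitro transcription/translation supplied GST-tagged yeast transcription factors, either full-length or DNA-binding domain. Applied at about 100-200 nM to universal all-10-mer Agilent arrays double-stranded by primer extension, the bound protein was detected with fluorescent anti-GST. E-scores, modified Wilcoxon-Mann-Whitney statistics, were given by the Universal PBM Analysis Suite to ungapped eight-base words pooled with their reverse complements after masliner normalisation.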
row,Sequence,PBM E-score
1,ACATGTAT,-0.0992
2,GGACTAGA,0.0871
3,ACGCGAAT,0.108
4,AACATAGA,0.0879
5,CATGTGAC,-0.11
6,AACTTCTT,0.163
7,ACCGCAGG,-0.0609
8,CGTGCGAA,0.152
9,GCCTTCGC,-0.11
10,AGGGCGAT,-0.293
11,CCATATCC,-0.179
12,AGCAGACT,0.0173
13,ACCCGGCG,0.151
14,TATATACA,0.0077
15,CAAGGCAA,-0.269
16,GGTACGTA,-0.0286
17,ACCCAAAA,0.184
18,GAATTTAC,-0.0208
19,ACAATGAC,-0.131
20,CGCCTGAA,0.143
21,AGGGGGTG,-0.271
22,ATAGGTCA,-0.0137
23,ACATACGT,0.0187
24,CACACCCC,-0.137
25,CTATTTCC,-0.00725

row,Sequence,PBM E-score
1,CAGACTGA,-0.157
2,GCTCGAGC,0.321
3,AATAACTG,0.181
4,GACAAGGC,-0.252
5,ACGGGAAA,0.0869
6,ACAGGCTG,-0.0906
7,AATCACAG,-0.0603
8,CAATTACG,-0.0206
9,CTGAAACC,0.0577
10,AAACAAAT,-0.135
11,GCAAAACC,-0.116
12,AACCACCC,0.0809
13,ACTGATCC,-0.0723
14,GACTATAA,0.0534
15,AAAACGGT,-0.0493
16,GCCCAGCC,-0.225
17,ATTTTGAC,-0.0399
18,CTACCGAC,-0.0695
19,CGTCCCGA,-0.0204
20,CAGAACGG,0.0548
21,ACACGTAT,0.0678
22,CCCTAGAA,0.0917
23,ACGCCGCG,0.157
24,TACGCGGA,-0.0111
25,AACTGCTT,0.0237

row,Sequence,PBM E-score
1,CGGAAATA,0.182
2,ATTGGTTA,0.0401
3,AATAGCCC,-0.144
4,ACGATCAC,-0.178
5,ATGCTGGC,-0.019
6,AAGTACCT,0.12
7,CGAAATTC,0.127
8,CCCGAACA,-0.00034
9,GGTTGCAA,0.0837
10,AGAATGTA,-0.0524
11,CTGCTTTC,0.0643
12,ATGGACAC,-0.13
13,AAGTAAAT,0.0668
14,AGCAAGAG,-0.0351
15,ACGCCGGC,0.0311
16,GCATATGC,-0.0738
17,AGGTAGCG,0.157
18,TACACATA,-0.056
19,AGGGCTGA,-0.242
20,ACTGAACA,0.0177
21,GAGGATAA,0.0272
22,GAAAAGAA,0.0753
23,AGCTGTGC,-0.276
24,AAGCATGC,-0.205
25,CAGGATGC,0.446

row,Sequence,PBM E-score
1,CGGTAGCA,-0.0732
2,ACGCGGCA,0.112
3,AGGGCCGA,-0.281
4,TCTGCAGA,-0.194
5,TCTACGAA,0.0885
6,GTATTTAA,0.117
7,CGACTAAG,-0.294
8,GGCACACC,-0.0829
9,ATTTTCCC,-0.0691
10,AGTGGGAG,0.256
11,AGTGTCGC,-0.00959
12,ACAACCTG,0.0338
13,ATAGATAT,-0.0152
14,ATACACCA,0.014
15,GCCTCGAC,-0.213
16,ACGTAAGG,-0.279
17,CTCGTACC,0.105
18,CCATACTA,0.0399
19,AGATCTAG,-0.103
20,AGCATACT,-0.0455
21,ATTTGATA,-0.0185
22,ACCGTAGC,-0.097
23,GTGTCCAA,0.0511
24,GTAATTAC,0.064
25,GCGGGTGA,-0.181

row,Sequence,PBM E-score
1,GTTTTAAA,0.0194
2,CAGAAGCG,0.223
3,CGTGCGGC,-0.106
4,GGAGAATA,-0.0709
5,ACCTCATG,-0.107
6,GCCGCAGC,0.0591
7,CTGTTATC,0.0231
8,ACGCTGGA,0.0355
9,CAGGGAGG,-0.257
10,CCACGACA,-0.258
11,TAGTTGCA,0.00472
12,GATATTTA,0.0473
13,CGTCAACC,-0.199
14,ACGGACGC,0.14
15,GTTGGCCA,-0.246
16,GAACGAGA,-0.0744
17,ACCGCGCA,-0.136
18,CAACGCGA,-0.104
19,ATTCGGTC,-0.026
20,GAGACAGA,-0.0415
21,CCACTACG,0.323
22,GGTGGGCA,0.0687
23,AAACGTCA,-0.0971
24,TTTACAAA,0.15
25,AGATGGTG,0.00702

row,Sequence,PBM E-score
1,ATTGAAAT,0.0928
2,ATTGCAGG,-0.124
3,CGGTTGGA,0.0351
4,AACAAGCA,-0.00635
5,CCGCTTCG,0.0926
6,AGTATCAA,0.00312
7,TATGTAAA,-0.00541
8,ATCATCAG,0.0107
9,CCGGCGCG,-0.112
10,ATCGCGGA,0.04
11,AGCCTTTA,-0.00701
12,GTGCGAAC,-0.117
13,CTACAGTC,-0.164
14,ACCACTCC,0.0934
15,ACAGGTAT,0.163
16,AGAAGATG,0.256
17,CGCGTACC,-0.108
18,TACGACAA,0.23
19,CCCCGTGC,-0.116
20,CCTTTATA,-0.0704
21,ACATAACG,-0.167
22,ACGATAGA,0.0112
23,ACGCACGT,-0.0538
24,AAAAGAAT,0.174
25,GACGCGAA,0.088

row,Sequence,PBM E-score
1,CCATGTTC,-0.0313
2,AGATCCGG,0.0544
3,GTTTGACA,-0.0418
4,TGAAAGAA,-0.0893
5,CCCGCCGC,0.132
6,ACCTTTTC,-0.0349
7,TCTAAAAA,0.106
8,CTGCAGTA,-0.187
9,CCTCCACG,-0.179
10,ATTTGCGA,-0.0325
11,CATCACCA,-0.0237
12,CGGGTAGA,-0.0235
13,AAGGGGAG,-0.0926
14,CTGGGGCC,0.0364
15,AAACAAGT,0.137
16,ACTACCGG,0.00365
17,GCAATGGA,-0.146
18,GTTAAACA,0.0589
19,CGCTAATA,-0.0086
20,TCGCAACA,-0.134
21,ATTGACCA,0.0202
22,GATTAGCA,0.101
